# Source: PubChem BioAssay AID686979 (National Center for Advancing Translational Sciences (NCATS), 2013)
# The campaign covered roughly 420,000 compounds. About 50,000 (12%) were called active. Inconclusive means that the source gave no clear call. Such entries were picked first, then a sample of the others. Calls come from the whole dose curve; as a rule, active = well fitted inhibition curve with a large enough effect; inconclusive = small, poorly fitted or top-dose-only effect; inactive = flat fitted curve, though single readings scatter. No potency is given beside an inconclusive call; the fits are too rough.
# Experiment: qHTS for Inhibitors of human tyrosyl-DNA phosphodiesterase 1 (TDP1): qHTS in cells in presence of CPT; note: nearly all actives have a fitted effect of over 55% in size
# Settings: chicken DT40 Tdp1-/-;hTDP1 cells + 20 nM CPT, ATP luminescence, 48 h; activity change, negative = growth inhibition: at 46.2 µM (top of the series)
# Summary of the method: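 Chicken DT40 Tdp1-/- cells stably complemented with human TDP1 were seeded at 400 cells/well in medium containing 20 nM camptothecin, exposed to pin-transferred compounds, and grown at 37 °C for at least 48 hr. Viability was read as ATP luminescence.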
# % is set by controls: 0 for no effect and ±100 for the full control effect; potency is the fitted concentration of half-maximal effect; tags give direction and shape of the fitted curve.
Structure (SMILES),Potency,"activity change, negative = growth inhibition"
CCc1cccc(NC(=O)CCCn2nc(CC)n3c(cc4occc43)c2=O)c1,"inconclusive [inhibitor, single point]",
Cc1cc(C)cc(N(CC(=O)NCCc2ccc(Cl)cc2)S(=O)(=O)c2c(C)noc2C)c1,,inactive: -2.97%
COc1ccc(C=CC(=O)c2ccc(OC)c(OC)c2O)cc1OC,"inconclusive [inhibitor, single point]",
CNC(=O)NC(=O)C(c1ccccc1)N(C)CC1COc2ccccc2O1 (stereo not drawn),,inactive: -21.5%
CC(C)Sc1ccc(C(=O)Nc2ccc(F)cc2F)cn1,"inconclusive [inhibitor, single point]",
Cc1ccc(-n2ncc3c(SCc4cccnc4)ncnc32)c(C)c1,active: 16.4 µM,
CN(Cc1ccco1)c1ncnc2ccc(-c3cccc(C#N)c3)cc12,active: 23.1 µM,
COc1ccccc1CNC(=O)c1cc(C(C)C)nc2ccccc12,"inconclusive [inhibitor, single point]",
O=c1cc(N=Nc2ccc(Cl)cc2)[nH]c(=O)[nH]1,active: 0.517 µM,
Cc1ccnc(NC(=O)C2CCN(S(=O)(=O)c3ccc4ccccc4c3)CC2)c1,"inconclusive [inhibitor, single point]",
Cc1cc(NC(=O)c2cc(-c3ccccc3Cl)nc3ccccc23)no1,,inconclusive: -31.6% [inhibitor]
CCOC(=O)c1[nH]c(C)c(C(=O)N2CCN(c3cccc(Cl)c3)CC2)c1C,"inconclusive [inhibitor, single point]",
Fc1cccc(CCN2CCNC[C@H]2Cc2cccc3ccccc23)c1,"inconclusive [inhibitor, single point]",
C=CCN(CC=C)Cc1cc(=O)oc2ccc3ccccc3c12,active: 16.4 µM,
CN(C)CCOc1cccc(Br)c1,,inactive: 3.6%
Cc1ccc(NC(=O)c2c(C)oc3ccc(O)c(CN4CCOCC4)c23)cc1,"inconclusive [inhibitor, full curve]",
CC1=C(C(=O)OCC2CCCO2)C(c2ccccc2Cl)NC(=O)N1 (stereo not drawn),,inactive: -8.29%
CCc1ccc(NC(=O)Cn2c(SCc3ccc(C)cc3)nc3ccncc32)cc1,"inconclusive [inhibitor, single point]",
Cc1ccc([C@@H]2CC=C(C(=O)O)CN2S(=O)(=O)c2ccccc2C)cc1,,inactive: -1.34%
Cc1ccc2c(=O)cc(C(=O)N(Cc3ccc(C(C)(C)C)cc3)C3CCS(=O)(=O)C3)oc2c1 (stereo not drawn),"inconclusive [inhibitor, partial curve]",
CC(=O)c1ccccc1Oc1ncnc(N)c1[N+](=O)[O-],,inactive: -12.3%
COc1ccc2c(c1)c(C(=O)N/N=C/c1cccc(Br)c1)c(C)n2C,"inconclusive [inhibitor, single point]",
CCN(CCn1cccn1)C(=O)CCc1nnc(C2CCCCC2)o1,,inactive: -7.56%
O=C(/C=C/c1cccc(Cl)c1)NCCN1CCOCC1,,inactive: 6.05%
O=C(c1ccccc1)N1CCN(Cc2ccccc2Br)CC1,"inconclusive [inhibitor, full curve, poor fit]",

Structure (SMILES),Potency,"activity change, negative = growth inhibition"
O=C(NC(Cc1c[nH]c2ccccc12)c1nnc2n1CCCCC2)c1ccc(Cl)cc1 (stereo not drawn),,inconclusive: -30.7% [inhibitor]
O=C(NCc1cccs1)c1cccc2c(-c3ccc(F)c(F)c3)coc12,"inconclusive [inhibitor, single point]",
O=C(N/C(=C/c1cccs1)C(=O)N1CCOCC1)c1ccccc1,,inactive: -2.01%
O=C(CCN1C(=O)/C(=C/c2ccccc2F)SC1=S)N[C@@H](CO)Cc1ccccc1,"inconclusive [inhibitor, single point]",
COc1cc(C(=O)NNC(=S)NC(=O)c2ccc(Cl)cc2)cc(OC)c1OC,"inconclusive [inhibitor, single point]",
COc1ccc2nc(C)cc(NCc3cccc(C(F)(F)F)c3)c2c1,active: 14.6 µM,
COc1ccc(-c2n[nH]c3c2CN(C(=O)c2ccc(OC)c(OC)c2)CC3)cc1,active: 8.2 µM,
COC(=O)C1=CO[C@@H](O)C2C(CO)=CCC12 (stereo partly drawn),"inconclusive [inhibitor, single point]",
COCCSc1ccccc1C(=O)N1CCN(Cc2ccc3c(c2)OCO3)CC1,,inactive: -15.2%
O=C(CN(C(=O)CSc1nnc(COc2ccccc2)o1)c1ccc(F)cc1)NC1CCCC1,"inconclusive [inhibitor, single point]",
O=C(c1cc2c(Cl)nc3ccccc3c2s1)N1CCCCC1,"inconclusive [inhibitor, single point]",
CCC(N)(C(=O)O)c1ccc(C(=O)O)cc1 (stereo not drawn),"inconclusive [inhibitor, single point]",
C[C@H](NC(=O)c1ncn2c1C(=O)NC[C@@H]2C)c1ccccc1,,inactive: -16%
O=C(NCCN1CCC(n2c(=O)[nH]c3ccccc32)CC1)c1ccc(Cl)c(Cl)c1,"inconclusive [inhibitor, single point]",
Cc1cccc(N=N/C(=C\O)C(=O)c2ccc(Br)cc2)c1,active: 8.2 µM,
CCN(CC)CCCNC(=O)c1cc2c(=O)n(CC)c3ccccc3c2s1,"inconclusive [inhibitor, single point]",
O=[N+]([O-])c1cccc2nc(-c3ccccc3)c(-c3ccccc3)nc12,"inconclusive [inhibitor, single point]",
CCOc1ccc(NS(=O)(=O)c2ccc(C(=O)N3CCCCC3)cc2)cc1,active: 14.6 µM,
O=C(NCc1cccnc1)c1cc(C2CCCN(S(=O)(=O)c3cccc4cccnc34)C2)on1 (stereo not drawn),active: 23.1 µM,
COc1ccc(C(CNc2ccc(S(=O)(=O)N3CCCC3)cc2[N+](=O)[O-])N2CCCC2)cc1 (stereo not drawn),"inconclusive [inhibitor, single point]",
CC(/C=C/c1ccccc1)=N/NC(=O)c1cc([N+](=O)[O-])cc([N+](=O)[O-])c1,active: 5.17 µM,
O=C1N2CCCCC1(c1ccccc1)CCCC2,,inactive: -21.1%
O=C(/C=C/c1cn(-c2ccccc2)nc1-c1cccnc1)N1CCCCC1,"inconclusive [inhibitor, single point]",
CN1C(=O)NC(c2ccc(C(F)(F)F)cc2)C2=C1CC(C)(C)CC2=O (stereo not drawn),,inactive: -8.78%
CC(=O)c1ccc2c(c1)CC1(C2)Cc2cc3c(cc2C1)C(=O)CC3 (stereo not drawn),active: 5.17 µM,

Structure (SMILES),Potency,"activity change, negative = growth inhibition"
O=C1c2ccccc2CCC12N=NCC2c1ccccc1 (stereo not drawn),,inactive: -9.29%
COc1cccc(N2CCN(C(=O)c3ccc(CS(=O)Cc4ccc(C)cc4)o3)CC2)c1 (stereo not drawn),"inconclusive [inhibitor, single point]",
O=C(CCc1ccc(S(=O)(=O)N2CCOCC2)cc1)Nc1ccc2ccccc2c1,"inconclusive [inhibitor, single point]",
O=C(CSc1nnc(-c2ccc3c(c2)OCO3)n1-c1ccccc1)c1ccccc1,active: 16.4 µM,
COc1ccc(CNC(=O)CSc2nnc(C)c3c(C)n(-c4ccccc4)nc23)c(OC)c1,"inconclusive [inhibitor, single point]",
C=CCn1c(SCc2cccc(C#N)c2)nnc1-c1ccccc1O,"inconclusive [inhibitor, single point]",
COc1ccccc1NC(=O)Nc1nnc(CC(=O)Nc2ccccc2C)s1,"inconclusive [inhibitor, partial curve]",
CC(C)CCNC(=O)C(=O)Nc1cc2c3c(c1)CCC(=O)N3CCC2,,inactive: -2.71%
CC(=O)Oc1ccc(Cn2c(C)c(C(=O)NCc3ccccc3C(F)(F)F)sc2=O)cc1,"inconclusive [inhibitor, single point]",
COc1cc(CNCCO)ccc1OCC(=O)Nc1ccc(Br)cc1,"inconclusive [inhibitor, partial curve, poor fit]",
Cc1cc(C)c2nc3sc(C(=O)N4CCOCC4)c(N)c3cc2c1,active: 0.58 µM,
COc1ccc(CCNC(=O)c2cnc3scc(C)n3c2=O)cc1OC,"inconclusive [inhibitor, single point]",
CC(NC(=O)COC(=O)Cc1ccc(Cl)cc1)c1ccccc1 (stereo not drawn),,inactive: -7.35%
OC[C@@H]1[C@@H](c2ccc(F)cc2)C(c2cccc(Cl)c2)=NN1c1ccccc1,active: 20.6 µM,
COC(=O)c1ccsc1NC(=O)CCS(=O)(=O)c1ccccc1,"inconclusive [inhibitor, single point]",
N#C/C(=C\c1c(N2CCCCC2)nc2ccccn2c1=O)C(=O)NC1CCS(=O)(=O)C1 (stereo not drawn),,inactive: -3.16%
COCCNC(=S)N(CCc1c(C)[nH]c2ccc(Cl)cc12)Cc1cccnc1,"inconclusive [inhibitor, single point]",
Cc1cc(/C=C2\SC(=Nc3ccc(F)cc3)NC2=O)c(C)n1-c1ccc(S(N)(=O)=O)cc1,active: 5.17 µM,
Cc1ccc2nc(C(=O)N3CCCC(Nc4ccc(F)cc4)C3)cn2c1 (stereo not drawn),,inactive: -20.1%
CCOC(=O)CSc1nnc(CSc2nc3sc4c(c3c(=O)[nH]2)CCCC4)n1-c1ccccc1,,inactive: 9.91%
O=C(CSc1nc2ccccc2n1Cc1cccc(F)c1)NCc1ccccc1,"inconclusive [inhibitor, partial curve]",
Cc1ccc([C@H]2C(C(=O)O)=CC[C@@H](c3ccc(Cl)c(Cl)c3)N2S(=O)(=O)c2ccc(C)cc2)cc1,"inconclusive [inhibitor, single point]",
CCCCCCNc1ccc(/C=C/c2ccnc3ccccc23)cc1,active: 15.8 µM,
